In ChEMBL document CHEMBL4888484, “Replenishing the malaria drug discovery pipeline: Screening and hit evaluation of the MMV Hit Generation Library 1 (HGL1) against asexual blood stage Plasmodium falciparum ,using a nano luciferase reporter read-out” (2022):
Hit rate of the full screen: of about 150,000 compounds, about 540 (0.36%) showed an effect of 50% or more. Some of the results follow.

tested on: Plasmodium falciparum; assay: Primary screen in NF54 nanoGlo assay, in single point, at 2uM, 72h; a lower Z score goes with more inhibition; format: functional, Erythrocyte; conditions: timepoint 72 hour

SMILES	% Inhibition [%]	Z score
Cc1ccc(-c2nc3cccnc3n2CCCNS(=O)(=O)c2c(C)cc(C)cc2C)cc1	24	-3.11
CCN(CC)CCN(CCC(F)(F)F)C(=O)[C@H]1CCCN(C(=O)c2ccc(F)cc2)C1	-2	0.24
COc1ccccc1C[C@H](NC(=O)N1CCCCO1)C(C)C	1	-0.05
CCn1nc(C(=O)O)c2c1CC[C@H](N(C)Cc1nc3cc(C)ccc3[nH]1)C2	-20	2.62
COc1ccccc1-c1noc([C@@H]2CCCN2C(=O)c2ccccc2C)n1	-5	0.78
COc1ccc(CNCC2(N(C)C)CCCCC2)cc1OC[C@@H](O)CN1CCCC1	-14	1.88
CC1(c2nccc(NC(=O)c3ccoc3C3CC3)n2)CC1	7	-1.33
O=C1CN(Cc2ccccc2F)C2CS(=O)(=O)CC2N1c1ccc(Br)cc1 (stereo not given)	-13	1.66
Cc1cc([C@@H](O)CCNC(=O)c2snnc2C)c(C)o1	-27	3.48
CN(CC[C@H]1CCCCO1)Cc1ccc2cc(O)ccc2c1	-1	0.18
Cc1ccnc(NC(=O)c2cccc(-c3nc(-c4ccc(F)cc4)no3)c2)c1	-2	0.23
C[C@H](NC(=O)N(C)Cc1ccc2c(c1)CN(C)C2)c1cnn(C)c1	-4	0.38
Cc1cc(C(=O)N2CC(=O)N(C)C2)c2n[nH]cc2c1	-10	1.5
Cc1nc(CCc2cccnc2)n(C(C)(C)C)n1	-2	0.31
CCc1nc(C(C)C)ccc1C(=O)NC[C@]1(O)CCOC1	7	-0.76
O=C(CCc1ccsc1)N[C@H]1CCOC[C@@H]1O	-6	0.56
CCOc1ccc(CC(=O)N2CCC3(CC2)NC(c2ccc(C)cc2)=NO3)cc1	-14	1.78
O=C(Cc1cc(F)ccc1F)N1CC2(CCOCC2)C1	-7	1.32
COc1ccc2c(c1)CC[C@H]2C(=O)Nc1ccnn1C1CC1	-12	1.35
C[C@H](CCC(=O)Nc1ccc2c(c1)OCO2)[C@H]1CC[C@H]2[C@@H]3[C@@H](O)C[C@@H]4C[C@H](O)CC[C@]4(C)[C@H]3CC[C@]12C	-12	1.52
Cc1cccnc1-n1nc(-c2ccccc2)nc1CNC(=O)c1ccccc1	-6	1.08
Cc1cnc(Cn2cc(Br)c(C)cc2=O)o1	3	-0.5

SMILES	% Inhibition [%]	Z score
Cn1nncc1CN1CC[C@H](n2cccn2)C1	-11	1.9
Cc1cc(C)n(CC2CCN([C@@H](C)c3cccnc3)CC2)n1	3	-0.41
Cc1cccc(N2CCN(c3ccc(C(=O)O)cc3NS(=O)(=O)c3cc(C)ccc3C)C[C@@H]2C)c1	-5	0.45
CC(C)[C@H](NC(=O)c1c(F)cccc1F)C(=O)OCc1c(F)c(F)c(F)c(F)c1F	-2	0.37
Cc1csc(C(=O)NCc2cnn3c2CCCC3)c1	8	-1.28
O=C(CS(=O)(=O)c1ccccc1)Nc1nc(-c2ccc3c(c2)OCO3)cs1	-10	1.57
COC[C@H](C)NC(=O)Nc1ccc(F)cc1C	-12	1.08
COc1cc(OC23CCCN(CC2)C3)cc(Cl)c1CN1CCCC1 (stereo not given)	-8	1.09
Cc1cccc(-c2nnc3c4ccccc4nc(N4CCN(S(=O)(=O)c5cccc(C)c5)[C@@H](C)C4)n23)c1	8	-1.2
O=C(Cn1cncn1)N1CCC(c2nc3cc(Cl)ccc3o2)CC1	-9	1.45
COc1cc(N)c(N)c(Br)c1	13	-1.97
Cc1ccc2c(c1C)-n1cccc1C1(CCN(S(=O)(=O)c3ccc(CC(C)C)cc3)CC1)N2	6	-0.85
O=C(Cn1nc(C(=O)N2CCc3ccccc32)ccc1=O)NCc1ccco1	-11	1.44
CC1(C(=O)NC(C#N)c2cccc(Cl)c2Cl)CCCO1 (stereo not given)	-8	1.04
c1ccc(Oc2ccc3oc4ccccc4c3c2)nc1	7	-1.11
Cc1ccc(C2(c3noc(COc4ccc(CC(N)=O)cc4)n3)CCCC2)cc1	0	0.03
Cc1cnn(CCNCCc2cccs2)c1	-14	2.22
COc1cccc(CN2C(=O)C(=O)N(CCC3OCCCO3)C2=O)c1	-3	0.56
CC(=O)c1cccc(OC(C)C(=O)N2CCC3C(CCCN3Cc3ccccc3)C2)c1 (stereo not given)	-10	0.93
Cc1ccc(CN(Cc2ccccc2)C(=O)CN(C(=O)Cc2ccc(F)cc2)C2CC2)o1	-7	0.8
O=C(NCC1CN(C(=O)c2ccccc2)C2CCN1C2)c1ncoc1C1CCCO1 (stereo not given)	-18	2.04
CN1CCN(c2cc(-c3ccccc3)nc3c(C(F)(F)F)cccc23)CC1	-6	0.84

SMILES	% Inhibition [%]	Z score
Cc1cc(NC(=O)CN2C(=O)C[C@]3(CCc4ccccc43)C2=O)no1	-7	1.36
CCC[C@@H](C(=O)OCC)N1CCN(CC)CC1	-1	0.09
CCCCN1CCOCC1C(=O)NCC1(O)CCOC1 (stereo not given)	-2	0.22
CN(CCCC1CCCC1)C(=O)c1cc(O)ccc1F	-5	0.9
O=C(OC1CN(c2nc3ccccc3s2)C1)c1c(F)cccc1Cl	-5	0.6
CCCn1nc(C(=O)N(C)Cc2ccc(C)o2)ccc1=O	2	-0.35
Fc1cccc(F)c1OC[C@@H]1CCCN2CCCC[C@H]12	2	-0.25
CC1CCC(NC(=O)c2nc[nH]n2)CC1 (stereo not given)	3	-0.34
COc1cccc(C(=O)COc2ccccc2N2C(=O)C3CCCCC3C2=O)c1 (stereo not given)	-10	1.29
Cc1oc2ccccc2c1CNC(=O)N1CCC(C)(CO)CC1	-20	3.05
CCCc1nnc(N2CCCN(CC)CC2)s1	-3	0.36
O=C(Cn1ncccc1=O)NCCCc1cnc2ncnn2c1	-3	0.63
COc1ccccc1OCCN1CC[C@@]2(CCCOC2)C1	-13	1.27
Cc1cc(CN(CCCn2ccnc2)Cc2cccnc2)[nH]n1	-9	1.31
O=C1C[C@H](N2CCN(Cc3ccccc3)CC2)C(=O)N1c1ccc2c(c1)OCO2	-4	0.81
C/C=C(\C)C(=O)N1CC[C@@]2(CCCN(CCCc3ccccc3)C2)C1	8	-1
Cc1nc(-c2cccc(C(=O)Nc3ccc(F)cc3Cl)c2)cs1	-7	0.88
CC(C)Cc1noc(Cn2ncccc2=O)n1	-20	2.72
Cc1cnc(CC[C@H]2CCCN2C(=O)C(C)(C)C)n1C	28	-3.71
O=C(NCCc1cccc(Cl)c1Cl)[C@H]1CC12CCNCC2	-19	1.73
CC(C)[C@@H]1NC(=O)N(Cc2noc3c2CCCC3)C1=O	-4	0.72
C=CCc1cc(CNc2n[nH]c(OC)n2)cc(OC)c1O	-7	1.35

SMILES	% Inhibition [%]	Z score
O=C(c1ccc2c(c1)OCO2)N1CCc2ncncc2C1	-4	0.7
C[C@]1(O)CCN(C(=O)Cc2ccccn2)C[C@H]1Cc1ccccc1	-3	0.5
CC[C@H](C)Cc1nc(-c2n[nH]nc2C)n(CC(C)(C)O)n1	-26	2.27
CCCCOc1ccc(-c2nc(=O)c(CCC(=O)N(C)CC)n[nH]2)cc1	-7	1.16
CC(O)CN1CCN(C(=O)Nc2ccc3c(c2)OCO3)C(C)C1 (stereo not given)	3	-0.33
Cc1cccc([C@H](CNC(=O)c2cnc(N(C)C)nc2C)N(C)C)c1	7	-1.04
COc1ccc(C(=O)Nc2nonc2NC(=O)c2ccc(OC)c(Br)c2)cc1Br	-20	2.67
O=C(NCc1cccnc1)c1nn(-c2ccc(Cl)cc2)c(=O)n(Cc2ccccc2)c1=O	-11	1.52
COc1ncc(-c2cccc(-c3ccn(CCO)n3)c2)c(OC)n1	-4	0.64
C[C@H](NC(=O)CCc1cnn(C)c1)c1nc(C2CC2)no1	-2	0.27
CC(C)N1CCN(C(=O)c2cc(-c3ccco3)[nH]n2)CC1	-13	2.25
CN(Cc1cnn(C)c1)C(=O)c1ccoc1	-5	0.85
Cc1ccc2sc(CN3CCC(C(=O)NCc4ccccc4)CC3)nc2c1	8	-0.78
CCC(C)(CC)NS(=O)(=O)c1ccc(OC2CCOCC2)c(F)c1	-5	0.71
O=C(Nc1ccc(Nc2ccccc2)cc1)N[C@H]1CC(=O)N(c2ccc3c(c2)OCCO3)C1	31	-3.94
N#Cc1cccc(Cl)c1NCCN1CCCOCC1	0	0.04
COc1ccccc1Cc1nc2c(c(N3CCOCC3)n1)CN(C(=O)c1cccc3ccccc13)CC2	1	-0.24
N#CC1C2CCC(C2)C1C(=O)c1ccccc1 (stereo not given)	-30	3.57
O=C1NC(=O)c2ccc(N3CCCC3)c3cccc1c23	-8	1.07
